Consider 85 compounds from ChEMBL document CHEMBL4888484, “Replenishing the malaria drug discovery pipeline: Screening and hit evaluation of the MMV Hit Generation Library 1 (HGL1) against asexual blood stage Plasmodium falciparum ,using a nano luciferase reporter read-out” (2022).

About 540 (0.36%) of roughly 150,000 compounds showed an effect of 50% or more. Some of the results follow.

In this assay the test system is Plasmodium falciparum. Description: Primary screen in NF54 nanoGlo assay, in single point, at 2uM, 72h; a lower Z score goes with more inhibition. The class given is functional, Erythrocyte. To be noted: timepoint 72 hour.
For orientation: % Inhibition means the change of the read-out against control, counted positive when it falls. With `CCN1CCN(C(=O)[C@@]2(CCOC)CCN(C(=O)OC(C)(C)C)C2)CC1`, the “% Inhibition” value is -6% and the Z score came to 0.67.
In the case of `CCCCc1c(C)nn(-c2nc(C)c(C(=O)N3CCOCC3)s2)c1C`, the “% Inhibition” value is -22% and the Z score stood at 1.98.
Taken in the same sequence, the figures for `CCOC(C)(C)C(=O)N1CC[C@H](CC(=O)NC)C1` were -2% and 0.34.
The like results for `Cc1nn(C)cc1S(=O)(=O)n1c(=O)cc(C(F)(F)F)c2cn(CC(C)C)nc21` were, in that order, 28% and -3.11.
Taken in the same sequence, the figures for `CN(C)C1(CNCc2cccc3nonc23)CCCCC1` were -2% and 0.33.
As for `Cn1cc([C@@H]2CCCN2Cc2nc(-c3ccsc3)no2)cn1`, the “% Inhibition” value is -8% and the Z score was 1.07.
`CC1=C(C(=O)N2CCN(C)CC2)[C@H](c2ccccc2C)n2ncnc2N1`: the “% Inhibition” value came out at 37% and the Z score is -4.14.
The like results for `Cc1cc(CNCc2cccnc2)c(C)n1-c1ccc(Cl)cc1` were, in that order, -5% and 0.55.
On to `Cc1cnc(C(C)CNC(=O)NC2CCN(C3CCCC3)C2)s1` (stereo not given), for which the “% Inhibition” value was 1% and the Z score is on record as -0.05.
In the case of `CC(O)CCN(C)C(=O)NC(C)Cc1ccsc1` (stereo not given), the “% Inhibition” value is given as -16% and the Z score stood at 1.6.
Taken in the same sequence, the figures for `CC(C)Oc1cc(C(=O)N[C@@H]2CCCC[C@H]2S(C)(=O)=O)ccn1` were 1% and -0.13.
The like results for `C[C@H](NC(=O)[C@H]1CC[C@H](CNS(=O)(=O)c2ccccc2)CC1)C(=O)NCC1CCCO1` (stereo not given in full) were, in that order, 8% and -0.96.
`Cc1cc(NC(=O)c2ccc(Cl)c(Cl)c2)nn1-c1ccc(F)cc1F`: the “% Inhibition” value is -3% and the Z score is 0.31.
The like results for `O=C(Cn1ncc(=O)c2ccccc21)NCCC1CC2CCC1C2` (stereo not given) were, in that order, -7% and 0.74.
For the compound `Cc1cc(C(=O)NCCn2ccnc2)no1`, the “% Inhibition” value is reported as -16% and the Z score was determined as 1.61.
Turning to `Cc1cccc(NC(=O)CN(C[C@H]2CCCO2)C(=O)c2ccsc2)c1C`, the “% Inhibition” value was 2% and the Z score is -0.31.
Taken in the same sequence, the figures for `O=C(c1ccccc1F)N1C[C@@H]2CN(CC3CCC3)C[C@]2(C(=O)O)C1` were -2% and 0.38.
Regarding `Cc1cnc(CNc2cccc(CS(=O)(=O)c3ccccc3)c2)o1`, the “% Inhibition” value is -4% and the Z score is 0.35.
Taken in the same sequence, the figures for `CC(C)c1ccc(O[C@@H](C)CNC(=O)N2CCN(c3nncn3C)CC2)cc1` were 0% and -0.03.
The like results for `COC1(CNC(=O)[C@H]2CCN(C(=O)c3ccccc3)C2)CCC(C(F)F)CC1` (stereo not given in full) were, in that order, -8% and 1.12.
Taken in the same sequence, the figures for `CN(C)S(=O)(=O)N(CCN1CCCC1)[C@H]1CCN(S(=O)(=O)c2ccc(F)cc2)C1` were -2% and 0.29.
Take `COc1ccc(C(=O)N2CCC3(CC2)C[C@@H]3NS(C)(=O)=O)cc1F`: the “% Inhibition” value worked out at 8% and the Z score is given as -1.27.
As for `CC(C)(C)OC(=O)N1CCc2ccc(NCc3cc[nH]n3)cc2C1`, the “% Inhibition” value is recorded as -2% and the Z score was found to be 0.31.
As for `CCN(C[C@H]1COc2ccccc2O1)c1ccc(C#N)cn1`, the “% Inhibition” value was -14% and the Z score was determined as 2.69.
For the compound `Cc1ccc(-c2nc(CNC(=O)Cn3cncn3)[nH]c2-c2ccccn2)cc1`, the “% Inhibition” value is -14% and the Z score turned out to be 1.3.
For `Cc1noc2ncnc(N3CCCC[C@H]3c3nccs3)c12`, the “% Inhibition” value was -7% and the Z score was 0.7.
The like results for `Nc1nc(N2CC[C@@]3(CCCN(C4CCCCC4)C3=O)C2)c2cn[nH]c2n1` were, in that order, -3% and 0.45.
Taken in the same sequence, the figures for `CCN(Cc1nc2c(s1)C[C@@H](C)CC2)C(=O)c1cc(OC)no1` were -3% and 0.35.
Turning to `CCC(CC)CNC[C@](C)(O)c1cnn(C)c1`, the “% Inhibition” value is -16% and the Z score worked out at 1.4.
The like results for `CCOc1ccc(NC(=O)c2c(NCc3ccc(OC)cc3)sc3c2CCC3)cc1` were, in that order, -5% and 0.85.
Take `Cc1nnc(CN2C(=O)N[C@]3(CC(C)(C)OC3(C)C)C2=O)s1`: the “% Inhibition” value is -3% and the Z score worked out at 0.41.
In the case of `O=C1NCCN1CCNc1nc(-c2c[nH]c3ccccc23)nc2c1CNC2`, the “% Inhibition” value is -10% and the Z score stood at 1.22.
Turning to `Cc1n[nH]c(CCC(=O)NCc2nc(C)c(C)n2C)c1C`, the “% Inhibition” value came to 0% and the Z score was 0.04.
The like results for `CCc1nonc1NC(=O)COc1ccc(Cl)cc1Cl` were, in that order, -7% and 0.92.
As for `Cc1nnc2n1C[C@@H](C(=O)OC(C)(C)C)NC2`, the “% Inhibition” value is -8% and the Z score was 0.9.
Taken in the same sequence, the figures for `Cc1noc(C)c1CN(C)Cc1cc(C2CC2)on1` were -6% and 0.89.
For `Cc1ccnc(N2C(=O)C3CCCCC3C2=O)c1` (stereo not given), the “% Inhibition” value is -11% and the Z score amounted to 2.04.
On to `CCCN(CC#N)C(=O)C(C)(C)Oc1ccc(C#N)cc1`, for which the “% Inhibition” value is listed as -13% and the Z score is on record as 1.94.
Taken in the same sequence, the figures for `COCCC(C)CCS(=O)(=O)N1CCCC(C2OCCO2)C1` (stereo not given) were 2% and -0.29.
Regarding `Cc1nccn1CC1CCN(C(=O)Nc2cc(F)c3c(c2)NC(=O)CO3)CC1`, the “% Inhibition” value is recorded as -32% and the Z score is reported as 2.78.
On to `CCN(CC)CC1(NC(=O)c2ccc(C)cc2OC)CC1`, for which the “% Inhibition” value is 8% and the Z score is on record as -1.55.
The like results for `COCCN1CCN(c2cc(N3CCN(CCOC)C(C)C3)n3ncnc3n2)CC1C` (stereo not given) were, in that order, -3% and 0.26.
Taken in the same sequence, the figures for `O=C(Cc1cccs1)NC[C@@H](c1cccnc1)S(=O)(=O)c1ccccc1` were -12% and 1.53.
Taken in the same sequence, the figures for `CN(C)[C@H]1CCN(CC(=O)NCc2cc(F)cc(C(F)(F)F)c2)C1` were 2% and -0.36.
Consider `Cc1ccnc(N2CCCC3C(NC(=O)C4CCC4)C(C)(C)C32)n1` (stereo not given), for which the “% Inhibition” value is -10% and the Z score is given as 1.4.
The like results for `CCN1CCN(Cc2cnc(N3CCCC3)s2)[C@H]2CS(=O)(=O)C[C@H]21` were, in that order, 1% and -0.17.
The like results for `Cc1nc(C(=O)NCCc2ccc3[nH]ncc3c2)c(C)o1` were, in that order, 10% and -1.15.
The like results for `CC[C@H](C)N(CC(=O)O)C(=O)c1noc2c1CCCC2` were, in that order, -6% and 0.86.
Turning to `Cc1cc(S(N)(=O)=O)c(F)cc1F`, the “% Inhibition” value is listed as 4% and the Z score is -0.63.
As for `COc1ccccc1CCN(C)C(=O)NCc1ccsc1`, the “% Inhibition” value turned out to be 8% and the Z score is recorded as -1.16.
Turning to `CCc1noc(C)c1C(=O)N1CCc2cc(S(=O)(=O)N(CC)CC)ccc21`, the “% Inhibition” value is given as 4% and the Z score was -0.54.
Consider `C[C@H]1CCCN(S(=O)(=O)NCCCN2CCCC2=O)C1`, for which the “% Inhibition” value is listed as -3% and the Z score is on record as 0.44.
Taken in the same sequence, the figures for `COCc1cc(=O)c2c(=O)n(-c3ccccc3)[nH]c2[nH]1` were 1% and -0.24.
Taken in the same sequence, the figures for `COc1ccc(C2CN(C(=O)c3ccccc3F)CC2C(=O)N2CCN(c3ccccc3C)CC2)cc1` (stereo not given) were -5% and 0.72.
Taken in the same sequence, the figures for `CC(CN[C@@H]1C=C[C@H](CO)C1)c1ccccc1` (stereo not given in full) were -6% and 0.88.
Take `CCOc1ccnc(NCCN2CCC(O)CC2)n1`: the “% Inhibition” value is -12% and the Z score came out at 1.34.
Regarding `COCCS(=O)(=O)[C@@H](C)C(=O)N(C)C1CCCCC1`, the “% Inhibition” value is -4% and the Z score came out at 0.41.
The like results for `CCOc1cc(N2CCOCC2)c(OCC)cc1NC(=O)c1ccoc1` were, in that order, -4% and 0.57.
Taken in the same sequence, the figures for `O=C1c2cccc3cccc(c23)C(=O)N1C1CCCCC1` were -3% and 0.61.
Taken in the same sequence, the figures for `COCCOCCS(=O)(=O)Nc1ccccc1C=CCO` were -8% and 0.99.
Consider `CCn1ncnc1CN1C[C@H](NC(=O)C2CCCCC2)[C@@H](C2CC2)C1`, for which the “% Inhibition” value was -3% and the Z score is reported as 0.45.
The like results for `CCNc1cc(F)ccc1C(=O)N[C@@H](C)C(=O)OC` were, in that order, -11% and 1.36.
The like results for `Cc1ccc([C@H](C)NC(=O)c2ncccc2O)s1` were, in that order, -5% and 0.47.
The like results for `CCn1c(=O)c([C@@H]2C(=O)Nc3ccccc32)nc2ccccc21` were, in that order, -7% and 1.04.
As for `C[C@@]1(C(=O)NC2CCCCCCC2)Cn2c(cc3ccccc32)C(=O)N1CCN1CCOCC1`, the “% Inhibition” value is listed as 5% and the Z score was -0.73.
The like results for `COc1nccc(C(=O)N2CCC[C@@H]3CCCC[C@@H]32)n1` were, in that order, -9% and 1.67.
Taken in the same sequence, the figures for `COc1c(C)cc(C(=O)[C@H]2CCCN(C(=O)CCc3c(C)nn(C)c3C)C2)cc1C` were -15% and 2.18.
The like results for `CN1CCN(Cc2cnn(C)c2)C[C@@]12CCC(=O)N(CC1CC1)CC2` were, in that order, 12% and -1.63.
With `O=S1(=O)CCN(CCc2ccccn2)CC1`, the “% Inhibition” value was -9% and the Z score is listed as 1.14.
The like results for `Fc1cccc(-c2nc(C3CC3)ncc2-c2nnnn2-c2ccc(Cl)cc2)c1` were, in that order, -6% and 0.84.
The like results for `O=C(NC1CC1)[C@@H]1CCCN1CCOc1cc(Cl)ccc1Cl` were, in that order, -10% and 1.6.
Taken in the same sequence, the figures for `CN(c1ccc(C(=O)NCc2ccco2)c(Cl)c1)S(C)(=O)=O` were 10% and -1.33.
In the case of `O=C(Nc1ccncc1)N[C@H]1CC(=O)N(c2ccc3c(c2)OCCO3)C1`, the “% Inhibition” value is -14% and the Z score was found to be 2.62.
The like results for `COc1cc(OC)cc(C(=O)N2CCN(Cn3ncsc3=S)CC2)c1` were, in that order, 0% and 0.04.
The like results for `O=C1NCCCC[C@@H]1Cc1nc(-c2cnc3ccccn23)no1` were, in that order, -13% and 1.51.
The like results for `Cc1cc(O)cc(=O)n1CCc1nnc2ccccn12` were, in that order, -9% and 1.18.
In the case of `CCOc1cc(-c2nnc(NC(=O)c3cccc4ccccc34)o2)cc(OCC)c1OCC`, the “% Inhibition” value is given as 12% and the Z score was -1.61.
The like results for `Cn1cc(-c2ccc(C(=O)N3CCOCC3)o2)cn1` were, in that order, -10% and 1.78.
The like results for `Cc1cc([C@@H]2CCCCN2Cc2nc3ccccc3[nH]2)no1` were, in that order, 4% and -0.56.
The like results for `O=C(CO[C@H](c1ccccc1)C(F)(F)F)N1CCCNCC1` were, in that order, -14% and 1.74.
In the case of `CC1CN(C(CN=C(N)Nc2ccccn2)c2cccs2)CCO1` (stereo not given), the “% Inhibition” value is given as -2% and the Z score was 0.35.
For `O=C(C[C@@H]1CCN2C[C@@H]1/C=C\COc1ccccc1CN(C(=O)C1CCC1)CC2=O)N1CCOCC1`, the “% Inhibition” value came to 2% and the Z score is listed as -0.27.
Taken in the same sequence, the figures for `CCN1CC(=O)N[C@H]2CN(C(=O)c3cn[nH]c3)CC[C@@H]2OCc2cccc(c2)Oc2cc(OC(C)C)cc(c2)C1=O` were -12% and 2.48.
The like results for `Cc1cc(C)c(C#N)c(-c2ccc(C(=O)N3CCC(N)CC3)cc2)n1` were, in that order, 6% and -1.13.
As to `COc1cc(CN2C[C@@H](CO)[C@H](C(=O)NC3CC3)C2)ccc1F`, the “% Inhibition” value is reported as -5% and the Z score was 0.72.
